Binding signal data for 172 sequences are collected here from article PMC10668032.

Some of the results follow. At the low end of the ranking the order means little.

For the experiment, the target named is SIX1-Q177R homeodomain (UniProt Q15475). Description: universal protein binding microarray. To be noted: Universal all-10-mer PBM (8x60K, AMADID 030236), 300 nM GST-tagged protein, Alexa Fluor 488 anti-GST; buffer, salt, pH and temperature not stated; high values mean tight binding; most listed sequences are background and not binding sites; double strand, one strand shown.
In the case of ATTACAGA, the binding signal is -0.195 E-score.

With CTAACGAG, the binding signal is -0.0965 E-score.

Turning to AAGTTGTG, the binding signal was -0.127 E-score.

For AAGTCGCC, the binding signal is -0.16 E-score.

On to CCTATATA, for which the binding signal was -0.122 E-score.

In the case of TCTAAGCA, the binding signal is -0.171 E-score.

For GCCGCCGA, the binding signal worked out at 0.0761 E-score.

For the sequence GGGGTCTA, the binding signal worked out at 0.229 E-score.

For ATGCAGTC, the binding signal is -0.109 E-score.

As for ACTAGCCT, the binding signal is -0.199 E-score.

Regarding AAGCTCGA, the binding signal was -0.136 E-score.

For ATCAGTAA, the binding signal turned out to be 0.164 E-score.

For the sequence CATGTAAA, the binding signal was -0.13 E-score.

ACGACCAC: the binding signal was 0.0943 E-score.

Take GACGACTC: the binding signal turned out to be 0.146 E-score.

Turning to ATCTGGCA, the binding signal is -0.152 E-score.

Regarding TCGCGGAA, the binding signal was 0.0246 E-score.

For GCACTGTA, the binding signal was -0.117 E-score.

Consider TATCAAAA, for which the binding signal is 0.00255 E-score.

As for CTAACTTA, the binding signal is -0.188 E-score.

For CAATCGGA, the binding signal was 0.118 E-score.

AAGGACCG: the binding signal was -0.282 E-score.

CTACACTA: the binding signal came out at 0.401 E-score.

Turning to TCCTATCA, the binding signal amounted to 0.147 E-score.

For the sequence CAGGCTTA, the binding signal is -0.297 E-score.

Turning to AAGACCAC, the binding signal was -0.0924 E-score.

For GAGATTTA, the binding signal is -0.0534 E-score.

As for TATCGCGA, the binding signal is -0.156 E-score.

For AGATCACT, the binding signal was -0.0196 E-score.

In the case of ACAATATC, the binding signal is -0.124 E-score.

Turning to AGTATCTC, the binding signal came out at 0.0384 E-score.

Take ACTGTGAA: the binding signal was -0.148 E-score.

With AACGAACG, the binding signal was -0.267 E-score.

In the case of CGATACTA, the binding signal stood at 0.157 E-score.

On to ACATAACA, for which the binding signal is 0.0873 E-score.

Take AACGTTCC: the binding signal was -0.24 E-score.

As to ACTCACTG, the binding signal is -0.0302 E-score.

On to GCCAACAC, for which the binding signal came to 0.369 E-score.

For CAGTAGGC, the binding signal is -0.218 E-score.

For AAGCTAAC, the binding signal was -0.0313 E-score.

CTTTCTCC: the binding signal is -0.265 E-score.

In the case of ACTAAAAG, the binding signal was -0.0131 E-score.

Take CCTCATCG: the binding signal was -0.014 E-score.

With AGCATAAC, the binding signal is 0.0403 E-score.

For the sequence TAGCGAGA, the binding signal is -0.195 E-score.

For the sequence AAGCCTAC, the binding signal was -0.0415 E-score.

Regarding AAACAGAA, the binding signal is -0.276 E-score.

AATAGGAG: the binding signal is -0.0112 E-score.

Take AAGAAAGG: the binding signal is -0.0237 E-score.

Turning to CACTGCAA, the binding signal stood at 0.109 E-score.

As to CCTTAGAC, the binding signal was found to be 0.0476 E-score.

As to AACTGCTT, the binding signal is -0.242 E-score.

With CGCGCGCC, the binding signal was -0.0976 E-score.

Regarding ACCCTAGG, the binding signal was found to be 0.152 E-score.

ACGCGAGT: the binding signal came to 0.162 E-score.

For ATAGATTA, the binding signal was -0.0436 E-score.

On to CTAGTATC, for which the binding signal came to 0.161 E-score.

Take ACGCTGAA: the binding signal is -0.0857 E-score.

AGCACACA: the binding signal is 0.0361 E-score.

Take GCGCGTCA: the binding signal is -0.1 E-score.

For the sequence ATCAACAG, the binding signal is -0.125 E-score.

On to AAGAAGCG, for which the binding signal was -0.266 E-score.

Regarding CAACAACG, the binding signal is 0.0791 E-score.

With AAAAAACG, the binding signal is -0.209 E-score.

As for TAGTAACA, the binding signal was determined as 0.0863 E-score.

In the case of TATGTAGA, the binding signal is -0.0829 E-score.

Take CCAAAAAC: the binding signal came out at 0.0495 E-score.

For the sequence GCTTCTAC, the binding signal is -0.0105 E-score.

As to CAAACAAG, the binding signal was -0.0843 E-score.

In the case of ACGAAAAA, the binding signal was -0.00654 E-score.

As for GGAGCGAA, the binding signal is -0.186 E-score.

In the case of ACCTGTAC, the binding signal is -0.0174 E-score.

Regarding AATAGCAA, the binding signal is -0.141 E-score.

Take AACTTGAG: the binding signal was -0.173 E-score.

For CTTCCAAC, the binding signal was 0.106 E-score.

For the sequence GGTCCACC, the binding signal was -0.0493 E-score.

As for CTTGGTCA, the binding signal is -0.114 E-score.

On to ATTGTTCC, for which the binding signal is -0.205 E-score.

On to CACTCGCC, for which the binding signal came out at 0.139 E-score.

For GTCGGAAA, the binding signal was found to be 0.0595 E-score.

Consider AGGTCCCA, for which the binding signal is -0.139 E-score.

AATCCAAA: the binding signal was -0.141 E-score.

With ACTGTGGA, the binding signal was -0.00679 E-score.

Turning to GAATGGTC, the binding signal is -0.0206 E-score.

Consider AACATGCT, for which the binding signal is -0.176 E-score.

Turning to CCGAGTCC, the binding signal came to 0.0012 E-score.

With ATCACAGG, the binding signal is -0.00754 E-score.

Consider CACGAACA, for which the binding signal was found to be 0.25 E-score.

As for CCACACCA, the binding signal came to 0.393 E-score.

Consider GGCGAGAC, for which the binding signal amounted to 0.168 E-score.

For GACGTGCC, the binding signal is -0.165 E-score.

In the case of ACCGAAAG, the binding signal is -0.0907 E-score.

Turning to GCTCCCGA, the binding signal is -0.0303 E-score.

For the sequence CGGTCAAA, the binding signal was -0.043 E-score.

As to AATGATTC, the binding signal is -0.259 E-score.

As for ATTGATGC, the binding signal was -0.00877 E-score.

Take ACAGGATC: the binding signal was -0.149 E-score.

Consider AGACTTAG, for which the binding signal is -0.136 E-score.

Take AGGGTGGG: the binding signal came to 0.176 E-score.

As for CTTTAACA, the binding signal was 0.0423 E-score.

GACTTAGC: the binding signal is -0.19 E-score.

Consider AATAACCC, for which the binding signal is 0.0915 E-score.

For CAACTGGC, the binding signal is -0.156 E-score.

For the sequence ATATTCCA, the binding signal is -0.111 E-score.

On to ATGGCATG, for which the binding signal was -0.251 E-score.

On to CGTTAGCA, for which the binding signal was 0.0646 E-score.

Consider CGTTGAAG, for which the binding signal was -0.126 E-score.

With CTCCGCCC, the binding signal is 0.0872 E-score.

Regarding GGGGAACA, the binding signal was 0.0837 E-score.

Turning to AACGCGAT, the binding signal was -0.201 E-score.

As for AGTGCACT, the binding signal was -0.0159 E-score.

With CAAGCCTG, the binding signal is -0.148 E-score.

In the case of CCTCTGCG, the binding signal is -0.0245 E-score.

For GTAGCGTA, the binding signal was 0.135 E-score.

As for AGTAGATA, the binding signal was -0.104 E-score.

Consider AATTTCCT, for which the binding signal is -0.128 E-score.

As for CGCGATGC, the binding signal is -0.295 E-score.

For CACAACTG, the binding signal was 0.179 E-score.

For the sequence AACGGCGA, the binding signal was -0.166 E-score.

In the case of CGTTCTCA, the binding signal was -0.033 E-score.

Turning to AAACATAA, the binding signal is -0.165 E-score.

In the case of GCAAGGAC, the binding signal was -0.123 E-score.

For the sequence TACGCCGA, the binding signal turned out to be 0.0489 E-score.

For the sequence GACGTTCC, the binding signal was -0.297 E-score.

As for TCGCTTAA, the binding signal is -0.106 E-score.

With AGGACATA, the binding signal was -0.114 E-score.

Turning to CCGTCTTC, the binding signal was -0.116 E-score.

ACAACTTG: the binding signal is -0.0779 E-score.

Take CGCTGCGC: the binding signal is -0.165 E-score.

CTCCCCGA: the binding signal is -0.0609 E-score.

Turning to ACCAATAG, the binding signal stood at 0.0812 E-score.

On to GGAACTCC, for which the binding signal is -0.0751 E-score.

For the sequence CTAGCTTC, the binding signal was -0.277 E-score.

As to ATTACCAA, the binding signal was 0.00112 E-score.

Consider ACCGTAGG, for which the binding signal amounted to 0.0409 E-score.

ATGAGCTC: the binding signal was -0.131 E-score.

As for ACCTTCCC, the binding signal was found to be 0.121 E-score.

With ATGCCGAC, the binding signal came to 0.0804 E-score.

As for AGCAATAT, the binding signal is -0.179 E-score.

For AGCGGTGG, the binding signal was -0.154 E-score.

For the sequence AATCTTGC, the binding signal was -0.35 E-score.

Take CGAAATTC: the binding signal is -0.0772 E-score.

CACGTTGG: the binding signal is -0.00579 E-score.

On to AGCCAGTA, for which the binding signal was -0.0596 E-score.

GATGTGCA: the binding signal was -0.14 E-score.

For the sequence TCCCTAGA, the binding signal was 0.0649 E-score.

Consider AAGAGTCT, for which the binding signal is -0.163 E-score.

Regarding CGATAGAC, the binding signal worked out at 0.00308 E-score.

As for ACGGAACG, the binding signal was determined as 0.0307 E-score.

GCATGCGA: the binding signal is -0.0881 E-score.

Turning to CCCTGAAA, the binding signal is 0.0739 E-score.

Turning to AAATGTAG, the binding signal was -0.323 E-score.

On to AAACATCG, for which the binding signal is -0.161 E-score.

Regarding AATCTTAA, the binding signal was -0.208 E-score.

As for CCCACCGC, the binding signal was -0.0285 E-score.

Turning to GTATGAAC, the binding signal came to 0.0747 E-score.

For ACTTCTGA, the binding signal was -0.0426 E-score.

Regarding GGTGCACC, the binding signal was determined as 0.353 E-score.

Take CGGCGATA: the binding signal was -0.0491 E-score.

GCTCGCAA: the binding signal was -0.112 E-score.

Consider CTTATTAC, for which the binding signal was -0.00737 E-score.

As to CGATAGTC, the binding signal was -0.0629 E-score.

As for AGAAAAAC, the binding signal was -0.149 E-score.

As to CCAGGCGC, the binding signal worked out at 0.0378 E-score.

Take AGTCAAGG: the binding signal was -0.117 E-score.

With GGCCGAAC, the binding signal was -0.0884 E-score.

For ACAAGCGA, the binding signal was -0.0817 E-score.

On to AGTGGTGA, for which the binding signal is -0.0871 E-score.

For ACCGTAGC, the binding signal was -0.0811 E-score.

Take CTACTCCC: the binding signal is 0.228 E-score.

Consider AGATTGCC, for which the binding signal is -0.282 E-score.

For the sequence AGCTGAAG, the binding signal is -0.239 E-score.
